Source: US20220380734A1, “SYSTEMS AND METHODS FOR LUNG CELL EXPANSION AND DIFFERENTIATION” (DUKE UNIVERSITY, priority 2019, published 2022)

System: human AEC2s
Test: Serum-free differentiation of human AEC2s to AEC1
Type: cell-based
Details: SFFF 14 days, then ADM without serum + IL6 20 ng/nL
Source text: The medium was changed every three days.

IL6: interleukin-6, 20 ng/mL supplement of serum-free differentiation medium
differentiation of AEC2s into AEC1: sufficient to induce differentiation
